Data from PubChem BioAssay AID1030 (National Center for Advancing Translational Sciences (NCATS), 2008).
In all, about 220,000 compounds went through this assay and about 16,000 (7.3%) were called active. This list was built around the results that the source calls inconclusive (neither active nor inactive); the mix of calls is not that of the screen. Calls follow the shape of the dose curve; as a rule, active = well fitted inhibition curve with a large enough effect (not every such curve was filed as active); inconclusive = small, poorly fitted or top-dose-only effect, or another doubt; inactive = no such curve, though single readings can be large or run the other way. No potency is given beside an inconclusive call; the fits are too rough.

target: Aldehyde dehydrogenase 1A1 (Homo sapiens) (UniProt P00352); experiment: qHTS Assay for Inhibitors of Aldehyde Dehydrogenase 1 (ALDH1A1); details: Purified ALDH1A1, NADH fluorescence, propionaldehyde substrate; series mostly up to 75.3 µM; activity, negative = inhibition: at the top concentration;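 as to activity, negative = inhibition: plate controls were no enzyme wells and a reference inhibitor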
Potency is read from the fitted curve at half-maximal effect; tags tell the direction and shape of the fitted curve.

Sequence of UniProt P00352 (P00352 whole entry, looked up): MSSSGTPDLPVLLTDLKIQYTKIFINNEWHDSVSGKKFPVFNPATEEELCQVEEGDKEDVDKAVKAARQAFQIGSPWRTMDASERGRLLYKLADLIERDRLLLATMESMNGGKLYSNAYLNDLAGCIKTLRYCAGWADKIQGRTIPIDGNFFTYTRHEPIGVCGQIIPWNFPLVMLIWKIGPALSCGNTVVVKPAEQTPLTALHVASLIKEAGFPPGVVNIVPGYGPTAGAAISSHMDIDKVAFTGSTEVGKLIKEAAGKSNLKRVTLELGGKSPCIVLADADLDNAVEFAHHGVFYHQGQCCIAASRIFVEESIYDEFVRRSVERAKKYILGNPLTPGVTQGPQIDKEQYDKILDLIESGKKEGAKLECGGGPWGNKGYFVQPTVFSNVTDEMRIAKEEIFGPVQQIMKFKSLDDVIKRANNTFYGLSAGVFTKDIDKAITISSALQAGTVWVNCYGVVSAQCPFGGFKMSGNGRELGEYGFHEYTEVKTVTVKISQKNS

| Structure (SMILES) | Potency | activity, negative = inhibition |
| --- | --- | --- |
| O=C(CSc1nc(-c2ccncc2)nn1CC(=O)N1CCCCC1)NC1CCCC1 | inconclusive [inhibitor, partial curve] | – |
| Cc1onc(-c2ccccc2)c1C(=O)Nc1ccc2c(C)cc(=O)oc2c1 | inconclusive [inhibitor, partial curve] | – |
| C=C1c2ccccc2O[C@H](C(=O)OCC)C1OC (mixture of isomers) | active: 31.6 µM | – |
| Cc1ccc(Cn2ccc(NC(=O)c3cc(C(C)C)on3)n2)cc1 | inconclusive [inhibitor, partial curve] | – |
| O=C(N/N=C1/CCSC1)c1cccc([N+](=O)[O-])c1 | inconclusive [inhibitor, single point] | – |
| CC1(C)CC(=O)C=C(C(=O)N2CCCC(C(=O)c3cccc(Cl)c3)C2)O1 (stereo unspecified) | inconclusive [inhibitor, single point] | – |
| CCN(CC(=O)N1CCc2ccccc2C1)S(=O)(=O)c1ccc2ccccc2c1 | inconclusive [inhibitor, single point] | – |
| COC(=O)c1cc(=O)n(Cc2ccc3c(c2)OCO3)c(=Nc2ccc(F)cc2)s1 | inconclusive [inhibitor, partial curve] | – |
| COc1ccc(-c2n[nH]c(=S)n2-c2ccc3c(c2)OCCO3)cc1OC | – | inactive: -15.1% |
| CCn1c(SCC(=O)NCc2ccco2)nnc1-c1c[nH]c2ccccc12 | – | inactive: -8.12% |
| Cc1ccc(N(NC(=O)C(C)(C)O)C(=O)c2ccccc2)cc1C | – | inactive: -4.71% |
| Cc1noc(C)c1COC(=O)c1ccc2c(c1)OCCO2 | inconclusive [inhibitor, single point] | – |
| COC(=O)c1cc(C(=O)N2CCN(c3cccc(Cl)c3)CC2)cc([N+](=O)[O-])c1 | – | inactive: 2.48% |
| Nc1nc2c(s1)COc1ccccc1-2 | active: 22.4 µM | – |
| Cn1nnc2ccccc2c1=O | – | inactive: 7.97% |
| FC(F)(F)c1cc(-c2cccs2)nc2ncnn12 | inconclusive [inhibitor, partial curve] | – |
| O=C(NCCCN1CCCC1=O)c1ccc(Cl)c(Cl)c1 | – | inactive: 0.844% |
| c1ccc2cc(NCNc3ccc4ccccc4c3)ccc2c1 | inconclusive [inhibitor, single point] | – |
| COc1ccc(-c2nc(NC(=O)CSc3nnc4ccccn34)ns2)cc1 | inconclusive [inhibitor, single point] | – |
| Cc1cccc(CNc2ncnc3ccc(-c4ccc(C(=O)N(C)C)cc4)cc23)c1 | inconclusive [inhibitor, partial curve] | – |
| O=C(OCC(=O)c1ccccc1Cl)c1cnccn1 | – | inactive: 12.1% |
| Cn1c(SCc2ccccc2F)nnc1-c1ccccn1 | inconclusive [inhibitor, single point] | – |
| CCN(CC)S(=O)(=O)c1ccc(NC2c3ccccc3C(=O)N2Cc2ccco2)cc1 (stereo unspecified) | inconclusive [inhibitor, partial curve] | – |

| Structure (SMILES) | Potency | activity, negative = inhibition |
| --- | --- | --- |
| CCn1cc(/C=N/NS(=O)(=O)c2ccc(C)cc2)c(C)n1 | inconclusive [inhibitor, single point] | – |
| Fc1cccc(Cl)c1/C=N/Nc1ccccn1 | – | inactive: -0.234% |
| O=C1C(=O)N(CNc2ccccn2)c2ccccc21 | active: 3.16 µM | – |
| COc1ccc(-c2nc3n(c(=O)c2C#N)CCS3)cc1 | – | inactive: 1.76% |
| NC(=O)CNC(=O)[C@@H]1CC2(CC(c3cccc([N+](=O)[O-])c3)=NO2)CN1C(=O)c1ccccc1 (stereo partly specified) | active: 1 µM | – |
| COc1ccc(/C=N/NC(=O)c2cc(=O)[nH]c3ccccc23)cc1OC | inconclusive [inhibitor, partial curve] | – |
| C=C(C)CN=c1scc(C)n1/N=C/c1ccco1 | – | inactive: 6.5% |
| COc1ccc(NC(=S)N(CCCN2CCN(C)CC2)Cc2cccs2)cc1 | inconclusive [inhibitor, single point] | – |
| CC(=O)NCC(=O)N(C)C(C(=O)Nc1ccc(C(C)C)cc1)c1ccccc1 (stereo unspecified) | inconclusive [inhibitor, partial curve] | – |
| CC(=O)NC(CC(=O)Nc1cccc(S(=O)(=O)N2CCCCC2)c1)c1ccccc1 (stereo unspecified) | – | inactive: 5.09% |
| N#CC1=C(N)SC(C(=O)c2ccccc2)C1c1cccs1 (stereo unspecified) | inconclusive [inhibitor, single point] | – |
| Cc1ccc(S(=O)(=O)N(C)C)cc1NC(=O)COC(=O)/C(=C/c1ccc(F)cc1)c1cccs1 | inconclusive [inhibitor, partial curve, poor fit] | – |
| Cc1ccc2ccccc2[n+]1CCCS(=O)(=O)[O-] | inconclusive [inhibitor, single point] | – |
| CCO[C@@H]1OC(C(=O)N2CCN(Cc3ccccc3)CC2)=C[C@H](c2csc3ccccc23)[C@H]1CCCO | inconclusive [inhibitor, single point] | – |
| CCOC(=O)c1c(C)n(C)c2ccc(OC(=O)c3ccc(N4C(=O)CCC4=O)cc3)cc12 | – | inactive: -11% |
| CN(C)C1C(=O)C(C(N)=O)=C(O)[C@@]2(O)C(=O)C3=C(O)c4c(O)ccc(Cl)c4C(O)[C@H]3C[C@@H]12 (stereo partly specified) | – | inactive: -6.47% |
| O=C1OCCN1C(=O)[C@H]1[C@H](c2ccc(Cl)cc2)C(c2ccc(F)cc2)=NN1c1ccc(Br)cc1 | inconclusive [inhibitor, single point] | – |
| O=C(CN1CCCc2ccccc21)NCCc1ccc(F)cc1 | inconclusive [inhibitor, single point] | – |
| CCCCn1c(O)c(/C=C/C=C/C=Nc2ccccc2)sc1=S | active: 17.8 µM | – |
| COc1ccc(CN(C(=O)c2oc3ccccc3c2C)C2CCS(=O)(=O)C2)cc1OC (stereo unspecified) | inconclusive [inhibitor, single point] | – |
| CCOC(=O)c1c(C)n(C)c2ccc(OCC(O)Cn3c(C)nc4ccccc43)cc12 (stereo unspecified) | inconclusive [inhibitor, single point] | – |
| CSc1ccccc1NC(=O)COc1ccc(S(=O)(=O)N2CCCC2)cc1 | – | inactive: -8.18% |
| CC(=O)Nc1cccc(/C(C)=N/NC(=O)c2c(-c3ccccc3Cl)noc2C)c1 | inconclusive [inhibitor, single point] | – |
